PubChem BioAssay AID485294 (National Center for Advancing Translational Sciences (NCATS), 2010)
Among all 370,000 compounds or so, about 150 (0.041%) were called active. The inconclusive results got no clear call from the source; some entries with a clear call stand among them for comparison. Calls come from the whole dose curve; as a rule, active = well fitted inhibition curve with a large enough effect; inconclusive = small, poorly fitted or top-dose-only effect; inactive = flat fitted curve, though single readings scatter. No potency is given beside an inconclusive call; the fits are too rough.

Biological target: Beta-lactamase (Escherichia coli (strain K12)) (UniProt P00811)
Chain of UniProt P00811 (P00811 whole entry, looked up): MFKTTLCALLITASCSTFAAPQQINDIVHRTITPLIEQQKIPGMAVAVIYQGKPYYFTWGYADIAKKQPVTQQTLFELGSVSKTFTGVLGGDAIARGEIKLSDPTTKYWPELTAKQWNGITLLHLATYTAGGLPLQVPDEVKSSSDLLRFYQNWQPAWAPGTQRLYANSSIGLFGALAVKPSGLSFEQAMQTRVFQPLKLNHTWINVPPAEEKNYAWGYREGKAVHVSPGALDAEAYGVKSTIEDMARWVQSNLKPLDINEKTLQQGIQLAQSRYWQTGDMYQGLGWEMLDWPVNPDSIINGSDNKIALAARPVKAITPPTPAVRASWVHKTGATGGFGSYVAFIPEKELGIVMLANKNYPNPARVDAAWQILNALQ
Assay: qHTS Inhibitors of AmpC Beta-Lactamase (assay with detergent); note: nearly all actives have a fitted effect of over 25% in size
Conditions: AmpC hydrolysis of nitrocefin, absorbance 480 nm, 0.01% Triton; series mostly up to 114 µM
Procedure, shortened: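 20 mM phosphate pH 7.0 + 0.01% (detergent screen) or 0.0001% Triton X-100; 5.3 nM AmpC reagent; cpd preinc 15 min RT; nitrocefin (800 uM stock) to start; A480 q20 s × 4 min; Activity was normalised to no-enzyme and no-compound control wells.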
Potency is the fitted concentration of half-maximal effect; tags give direction and shape of the fitted curve.

How did the Potency turn out when `CN(CCn1ccnc1)Cc1cn(-c2ccccc2)nc1-c1ccc2c(c1)OCO2` was run?
Its Potency is “inactive”.

`CC(C)(C)c1ccc(OCCCNCc2ccccc2)cc1` was tested. Which Potency did it give?
Its Potency is “inactive”.

With `CCOC(=O)C1CCN(S(=O)(=O)c2c(C)[nH]c(C)c2C(=O)N2CCCCC2)CC1` as the molecule, how does the Potency read?
Its Potency is inconclusive [inhibitor, full curve].

`O=C(NCc1ccccc1)c1ccc2c(c1)OCCO2` was tested. Which Potency did it give?
Its Potency is “inactive”.

Which Potency does the source give for `COc1ccc(C(C)NC(=O)c2ccc(Br)cc2)cc1OC` (configuration not stated) here?
The Potency was inconclusive [inhibitor, full curve, poor fit].

How did the Potency turn out when `COC(=O)C1=C(CSCc2ccccc2)NC(=O)NC1c1cc(C)ccc1C` (configuration not stated) was run?
The Potency was inconclusive [inhibitor, partial curve, poor fit].

Which Potency does the source give for `Cc1ccc(-c2nnn(CC(=O)N(Cc3ccco3)C(C(=O)NC3CCCC3)c3cccs3)n2)o1` (configuration not stated) here?
The Potency was inconclusive [inhibitor, partial curve].

`CCOc1ccc(S(=O)(=O)N2CCC(C(=O)N3CCc4ccccc4C3)CC2)cc1` was tested. Which Potency did it give?
The Potency was inconclusive [inhibitor, full curve, poor fit].

Which Potency does the source give for `CCOc1ccccc1NC(=O)NNS(=O)(=O)c1ccc([N+](=O)[O-])cc1` here?
Its Potency is inconclusive [inhibitor, full curve].

`COC(=O)CSc1nc(C)c(C(C)=O)cc1C#N` was tested. Which Potency did it give?
Its Potency is “inactive”.

With `Cc1[nH][nH]c(=O)c1C(c1ccc(-c2ccc(F)cc2)o1)c1c(C)[nH][nH]c1=O` as the molecule, how does the Potency read?
The Potency was “inactive”.

`COc1ccc(CCC(=O)NC2CCCN(Cc3ccc(Cl)cc3)C2)cc1OC` (configuration not stated) was tested. Which Potency did it give?
Its Potency is inconclusive [inhibitor, full curve, poor fit].

How did the Potency turn out when `COc1c2ccoc2c(OC[C@@H](O)C(C)(C)O)c2oc(=O)ccc12` was run?
Its Potency is inconclusive [inhibitor, full curve, poor fit].

Which Potency does the source give for `COC(=O)c1c(C(=O)NCc2ccccc2)ncn1CC(O)COc1ccccc1` (configuration not stated) here?
The Potency was inconclusive [inhibitor, full curve, poor fit].

`COC(CN(C(=O)CCl)C(C(=O)NC1CCCCC1)c1ccc(C)cc1)OC` (configuration not stated) was tested. Which Potency did it give?
Its Potency is inconclusive [inhibitor, full curve, poor fit].

For `O=C1c2ccccc2S(=O)(=O)N1CC1CC(c2ccc(Cl)cc2)=NO1` (configuration not stated), which Potency is on record?
Its Potency is inconclusive [inhibitor, full curve].

How did the Potency turn out when `COc1ccc(N2CCN(c3nc4ccccc4n3CC(=O)c3ccccc3)CC2)cc1` was run?
Its Potency is inconclusive [inhibitor, full curve, poor fit].

For `Cc1ccc(-c2nc(C(=O)NCCCN3CCOCC3)cc3c2[nH]c2ccccc23)cc1`, which Potency is on record?
The Potency was inconclusive [inhibitor, partial curve].

With `Cc1ccccc1-n1nnnc1SC(C)C(=O)Nc1ccc(N2CCN(C)CC2)cc1` (configuration not stated) as the molecule, how does the Potency read?
Its Potency is inconclusive [inhibitor, full curve, poor fit].

With `Cc1ccc(NC(=O)C2CC(=O)N(Cc3ccccc3)C2)nc1` (configuration not stated) as the molecule, how does the Potency read?
The Potency was inconclusive [inhibitor, full curve, poor fit].

Which Potency does the source give for `O=C(C1Cc2ccccc2CN1S(=O)(=O)c1ccc(F)cc1)N1CCCCC1` (configuration not stated) here?
Its Potency is inconclusive [inhibitor, full curve].

Which Potency does the source give for `CCc1nnc(NC(=O)c2cccc(S(=O)(=O)N3CCN(C(C)=O)CC3)c2)s1` here?
Its Potency is inconclusive [inhibitor, full curve, poor fit].

With `COc1ccc(-c2noc(-c3ccc(NCc4ccc(C)cc4)c([N+](=O)[O-])c3)n2)cc1OC` as the molecule, how does the Potency read?
Its Potency is “inactive”.

With `CCCCC(CC)C(=O)Nc1cc(C(=O)NCCC)ccc1N1CCC2(CC1)CC(c1cccc(Br)c1)=NO2` (configuration not stated) as the molecule, how does the Potency read?
The Potency was inconclusive [inhibitor, full curve].

For `O=C(CC1Sc2ccccc2NC1=O)Nc1cccc(-c2nnc3n2CCCCC3)c1` (configuration not stated), which Potency is on record?
Its Potency is “inactive”.

Which Potency does the source give for `Cc1noc(C)c1S(=O)(=O)N1CCCCC1` here?
The Potency was inconclusive [inhibitor, partial curve, poor fit].

With `CCCC(=O)NC(c1ccccc1)c1ccc2cccnc2c1O` (configuration not stated) as the molecule, how does the Potency read?
The Potency was “inactive”.

Which Potency does the source give for `Cc1csc(NC(=O)CSc2nnc(-c3ccc(S(=O)(=O)N4CCCC4)cc3)o2)n1` here?
Its Potency is inconclusive [inhibitor, full curve].

For `O=S(=O)(Nc1ccc(-c2csc(-c3ccccc3)n2)cc1)c1ccccc1`, which Potency is on record?
The Potency was inconclusive [inhibitor, full curve, poor fit].

`COc1ccc(Cl)cc1NC(=O)COC(=O)c1c(-c2ccccc2)noc1C` was tested. Which Potency did it give?
Its Potency is inconclusive [inhibitor, single point].

For `O=C(/C(=C/c1ccncc1)n1ccnc1)c1ccc(Cl)cc1Cl`, which Potency is on record?
Its Potency is “inactive”.

Which Potency does the source give for `Nc1cnn(-c2ccccc2)c(=O)c1Cl` here?
Its Potency is inconclusive [inhibitor, full curve].

For `COC(=O)c1cc(NC(=O)CC2C(=O)NCCN2C(=O)c2ccccc2)cc(C(=O)OC)c1` (configuration not stated), which Potency is on record?
The Potency was inconclusive [inhibitor, full curve, poor fit].

For `COC(C)(C)[C@H](O)COc1c2ccoc2cc2oc(=O)ccc12`, which Potency is on record?
Its Potency is inconclusive [inhibitor, full curve].

For `COc1ccc(OCCOC(=O)CN2C(=O)NC3(CCCC3)C2=O)cc1`, which Potency is on record?
The Potency was inconclusive [inhibitor, partial curve, poor fit].

With `CCOC(=O)c1c(NC(=O)c2nn(CC)cc2Br)c(C#N)cn1-c1ccccc1` as the molecule, how does the Potency read?
The Potency was “inactive”.

For `Cc1cc(C)c(NC(=O)CS(=O)CC(=O)Nc2ccc(F)cc2F)c(C)c1` (configuration not stated), which Potency is on record?
The Potency was inconclusive [inhibitor, partial curve].

Which Potency does the source give for `Cc1ccc(S(=O)(=O)Cc2c(C)noc2C)cc1` here?
The Potency was inconclusive [inhibitor, full curve, poor fit].

`COc1ccccc1C(=O)NC1CCCCCCC1` was tested. Which Potency did it give?
Its Potency is inconclusive [inhibitor, partial curve, poor fit].

How did the Potency turn out when `Cc1ccsc1/C=N/NC(=O)c1ccc2ccccc2c1` was run?
The Potency was inconclusive [inhibitor, full curve, poor fit].

`COc1ccc(Cl)cc1NC(=O)CN(C)C(=O)c1cc2ccccc2cc1O` was tested. Which Potency did it give?
Its Potency is inconclusive [inhibitor, single point].

`Cc1ccc2nc(N/C(=N/S(=O)(=O)c3ccc(F)cc3)c3ccccc3)sc2c1` was tested. Which Potency did it give?
Its Potency is “inactive”.

For `CCOc1ccc(S(=O)(=O)Nc2ccccn2)c2ccccc12`, which Potency is on record?
Its Potency is “inactive”.

How did the Potency turn out when `CC(C)=N/N=C1/NC(=O)C(Cc2ccccc2)S1` (configuration not stated) was run?
The Potency was inconclusive [inhibitor, full curve, poor fit].

`CNS(=O)(=O)c1cccc(C(=O)OCC(=O)N(CCC#N)c2ccccc2)c1` was tested. Which Potency did it give?
The Potency was inconclusive [inhibitor, partial curve].

With `COc1ccc(S(=O)(=O)N2CCCCCC2)cc1C(=O)N(C)CC(=O)Nc1ccc(Cl)c(Cl)c1` as the molecule, how does the Potency read?
The Potency was inconclusive [inhibitor, full curve, poor fit].

Which Potency does the source give for `COC(=O)CC1C(C(=O)OC)ON2OC(C(=O)OC)C(C(=O)OC)C12` (configuration not stated) here?
The Potency was inconclusive [inhibitor, partial curve, poor fit].

For `Cc1cc(C)c(NC(=O)Cn2nc3c(cc2=O)CCCC3)c(C)c1`, which Potency is on record?
The Potency was “inactive”.

How did the Potency turn out when `Cc1cc(OCCn2cncn2)ccc1[N+](=O)[O-]` was run?
Its Potency is inconclusive [inhibitor, partial curve, poor fit].

Which Potency does the source give for `O=C(Cn1ncc2c1-c1ccccc1OC2)N1CCc2ccccc21` here?
The Potency was inconclusive [inhibitor, full curve, poor fit].

For `C=CCNc1nc(-c2c(C)nc3ncccn23)cs1`, which Potency is on record?
The Potency was inconclusive [inhibitor, partial curve, poor fit].

`CC(Cc1ccccn1)NC(=O)c1ccc(OC2CCN(Cc3ccccn3)CC2)cc1` (configuration not stated) was tested. Which Potency did it give?
The Potency was “inactive”.

`CCN(CC)c1ccc(C(=O)OCC(=O)Nc2ccc3[nH]c(=O)[nH]c3c2)cc1` was tested. Which Potency did it give?
The Potency was inconclusive [inhibitor, single point].

How did the Potency turn out when `N#CC1CN(C(c2ccccc2)c2ccccc2)C1` was run?
The Potency was “inactive”.

How did the Potency turn out when `S=C(NCCc1ccc(Cl)cc1)NCc1ccccc1` was run?
Its Potency is inconclusive [inhibitor, full curve].

For `COc1ccc2ccccc2c1/C=N/NC(=O)c1cc(C)[nH]n1`, which Potency is on record?
The Potency was inconclusive [inhibitor, partial curve].

Which Potency does the source give for `CC(C)c1ccc(C2CC(=O)c3cnc(NC(=O)c4ccco4)nc3C2)cc1` (configuration not stated) here?
The Potency was inconclusive [inhibitor, full curve, poor fit].

For `c1ccc(-c2ccccc2OCCCN2CCCC2)cc1`, which Potency is on record?
Its Potency is “inactive”.

With `COc1cc(C(CC(=O)N2CCCC2)c2c(OC)cc(OC)c3c(-c4ccccc4)cc(=O)oc23)cc(OC)c1OC` (configuration not stated) as the molecule, how does the Potency read?
Its Potency is “inactive”.

With `Cc1ccc(CNc2oc(-c3ccco3)nc2S(=O)(=O)c2ccccc2)cc1` as the molecule, how does the Potency read?
Its Potency is “inactive”.

How did the Potency turn out when `CCC(=O)N1CCN(c2ccc(NC(=O)c3ccc4c(c3)OCO4)cc2)CC1` was run?
Its Potency is inconclusive [inhibitor, full curve].

For `CN(C)c1nc(C#N)nc(N2CCOCC2)n1`, which Potency is on record?
The Potency was inconclusive [inhibitor, full curve, poor fit].

`O=C(COc1ccc(-c2ccccc2)cc1)NNC(=O)Nc1ccc(F)cc1F` was tested. Which Potency did it give?
The Potency was “inactive”.

Which Potency does the source give for `Cc1sc2nc(CN3CCCCC3)nc(Nc3ccc4c(c3)OCCO4)c2c1C` here?
Its Potency is “inactive”.

`Nc1ccc(S(=O)(=O)Nc2ccccn2)cc1` was tested. Which Potency did it give?
The Potency was inconclusive [inhibitor, full curve, poor fit].

Which Potency does the source give for `COCc1c(Br)c(C)nc2sc3c(=O)[nH]nnc3c12` here?
The Potency was “inactive”.

`COc1cc(C(=O)O/N=C2\C=CC(=O)C=C2C)cc(OC)c1OC` was tested. Which Potency did it give?
Its Potency is inconclusive [inhibitor, single point].
